{"source": "a collection of fitness landscapes (doi:10.1126/science.1257360)", "parents": {"B1": {"name": "PhoQ; a variant is named by its letters at X, in order, P23837 (parent)", "chain": "MKKLLRLFFPLSLRVRFLLATAAVVLVLSLAYGMVALIGYSVSFDKTTFRLLRGESNLFYTLAKWENNKLHVELPENIDKQSPTMTLIYDENGQLLWAQRDVPWLMKMIQPDWLKSNGFHEIEADVNDTSLLLSGDHSIQQQLQEVREDDDDAEMTHSVAVNVYPATSRMPKLTIVVVDTIPVELKSSYMVWSWFIYVLSANLLLVIPLLWVAAWWSLRPIEALAKEVRELEEHNRELLNPATTRELTSLVRNLNRLLKSERERYDKYRTTLTDLTHSLKTPLXXLQXXLRSLRSEKMSVSDAEPVMLEQISRISQQIGYYLHRASMRGGTLLSRELHPVAPLLDNLTSALNKVYQRKGVNISLDISPEISFVGEQNDFVEVMGNVLDNACKYCLEFVEISARQTDEHLYIVVEDDGPGIPLSKREVIFDRGQRVDTLRPGQGVGLAVAREITEQYEGKIVAGESMLGGARMEVIFGRQHSAPKDE"}}, "note": "The list shows a part of the results.", "data": [{"variants_of": "B1", "assay": "enrichment ratio after two sorts for PhoP signalling (ratio (wild type AVST 3.29)); higher = more functional", "details": "with PhoP (E. coli)", "values": [{"variant": "NYLL", "enrichment ratio": "≤ 0.25"}, {"variant": "RNKN", "enrichment ratio": "≤ 0.25"}, {"variant": "TGAQ", "enrichment ratio": 2.72}, {"variant": "YWCQ", "enrichment ratio": "≤ 0.25"}, {"variant": "LCNR", "enrichment ratio": "≤ 0.25"}, {"variant": "RDTE", "enrichment ratio": "≤ 0.25"}, {"variant": "LSYR", "enrichment ratio": "≤ 0.25"}, {"variant": "LGTP", "enrichment ratio": "≤ 0.25"}, {"variant": "AEVM", "enrichment ratio": 46.8}, {"variant": "PIFQ", "enrichment ratio": "≤ 0.25"}, {"variant": "LIMV", "enrichment ratio": "≤ 0.25"}, {"variant": "KHIM", "enrichment ratio": "≤ 0.25"}, {"variant": "QASM", "enrichment ratio": 8.25}, {"variant": "PSQD", "enrichment ratio": "≤ 0.25"}, {"variant": "PDQV", "enrichment ratio": "≤ 0.25"}, {"variant": "NAYG", "enrichment ratio": "≤ 0.25"}, {"variant": "PQLT", "enrichment ratio": "≤ 0.25"}, {"variant": "YRRC", "enrichment ratio": "≤ 0.25"}, {"variant": "ALTY", "enrichment ratio": 3.1}, {"variant": "HCAK", "enrichment ratio": "≤ 0.25"}, {"variant": "YWTS", "enrichment ratio": "≤ 0.25"}, {"variant": "TCGL", "enrichment ratio": 13.5}, {"variant": "EACC", "enrichment ratio": "≤ 0.25"}, {"variant": "HNGT", "enrichment ratio": "≤ 0.25"}, {"variant": "DIDT", "enrichment ratio": "≤ 0.25"}, {"variant": "LFHG", "enrichment ratio": "≤ 0.25"}, {"variant": "KNHY", "enrichment ratio": "≤ 0.25"}, {"variant": "DYKT", "enrichment ratio": "≤ 0.25"}, {"variant": "IIKC", "enrichment ratio": "≤ 0.25"}, {"variant": "AFRG", "enrichment ratio": "≤ 0.25"}, {"variant": "EHLK", "enrichment ratio": "≤ 0.25"}, {"variant": "HFTY", "enrichment ratio": "≤ 0.25"}, {"variant": "PHSP", "enrichment ratio": "≤ 0.25"}, {"variant": "VPVP", "enrichment ratio": "≤ 0.25"}, {"variant": "KLTD", "enrichment ratio": "≤ 0.25"}, {"variant": "WCFH", "enrichment ratio": "≤ 0.25"}, {"variant": "YQPY", "enrichment ratio": "≤ 0.25"}, {"variant": "DAYP", "enrichment ratio": "≤ 0.25"}, {"variant": "YCVP", "enrichment ratio": "≤ 0.25"}, {"variant": "YHFN", "enrichment ratio": "≤ 0.25"}, {"variant": "FYYW", "enrichment ratio": "≤ 0.25"}, {"variant": "DSMI", "enrichment ratio": "≤ 0.25"}, {"variant": "TPWW", "enrichment ratio": "≤ 0.25"}, {"variant": "HELE", "enrichment ratio": "≤ 0.25"}, {"variant": "YMCA", "enrichment ratio": "≤ 0.25"}, {"variant": "GRIF", "enrichment ratio": "≤ 0.25"}, {"variant": "AFHS", "enrichment ratio": "≤ 0.25"}, {"variant": "IWML", "enrichment ratio": "≤ 0.25"}, {"variant": "PYCR", "enrichment ratio": "≤ 0.25"}, {"variant": "QAHK", "enrichment ratio": "≤ 0.25"}, {"variant": "NCRY", "enrichment ratio": "≤ 0.25"}, {"variant": "FVDN", "enrichment ratio": "≤ 0.25"}, {"variant": "HIRP", "enrichment ratio": "≤ 0.25"}, {"variant": "AILT", "enrichment ratio": 6.15}, {"variant": "DWHR", "enrichment ratio": "≤ 0.25"}, {"variant": "NKRR", "enrichment ratio": "≤ 0.25"}, {"variant": "PDHT", "enrichment ratio": "≤ 0.25"}, {"variant": "VQQV", "enrichment ratio": "≤ 0.25"}, {"variant": "MPWK", "enrichment ratio": "≤ 0.25"}, {"variant": "DADM", "enrichment ratio": "≤ 0.25"}, {"variant": "VPLK", "enrichment ratio": "≤ 0.25"}, {"variant": "GYKY", "enrichment ratio": "≤ 0.25"}, {"variant": "SAAR", "enrichment ratio": "≤ 0.25"}, {"variant": "GSWQ", "enrichment ratio": "≤ 0.25"}, {"variant": "EDSY", "enrichment ratio": "≤ 0.25"}, {"variant": "NCNR", "enrichment ratio": "≤ 0.25"}, {"variant": "MHSF", "enrichment ratio": "≤ 0.25"}, {"variant": "RTNH", "enrichment ratio": "≤ 0.25"}, {"variant": "MFLA", "enrichment ratio": "≤ 0.25"}, {"variant": "YGII", "enrichment ratio": "≤ 0.25"}, {"variant": "FTWD", "enrichment ratio": 2.02}, {"variant": "PDHL", "enrichment ratio": "≤ 0.25"}, {"variant": "HPWM", "enrichment ratio": "≤ 0.25"}, {"variant": "GRHK", "enrichment ratio": "≤ 0.25"}, {"variant": "KPRK", "enrichment ratio": "≤ 0.25"}, {"variant": "LDVF", "enrichment ratio": "≤ 0.25"}, {"variant": "FCTM", "enrichment ratio": "≤ 0.25"}, {"variant": "GSYL", "enrichment ratio": "≤ 0.25"}, {"variant": "RSHE", "enrichment ratio": "≤ 0.25"}, {"variant": "SYQA", "enrichment ratio": "≤ 0.25"}, {"variant": "VICW", "enrichment ratio": "≤ 0.25"}, {"variant": "YPMW", "enrichment ratio": "≤ 0.25"}, {"variant": "DCLL", "enrichment ratio": "≤ 0.25"}, {"variant": "RCDD", "enrichment ratio": "≤ 0.25"}, {"variant": "IWIY", "enrichment ratio": "≤ 0.25"}, {"variant": "KLNP", "enrichment ratio": "≤ 0.25"}, {"variant": "LGNM", "enrichment ratio": "≤ 0.25"}, {"variant": "ATKV", "enrichment ratio": "≤ 0.25"}, {"variant": "FPIV", "enrichment ratio": "≤ 0.25"}, {"variant": "ELCA", "enrichment ratio": "≤ 0.25"}, {"variant": "TGYF", "enrichment ratio": 1.56}, {"variant": "AQPD", "enrichment ratio": "≤ 0.25"}, {"variant": "LPDP", "enrichment ratio": "≤ 0.25"}, {"variant": "YMGC", "enrichment ratio": 0.731}, {"variant": "NGFV", "enrichment ratio": "≤ 0.25"}, {"variant": "AQMK", "enrichment ratio": "≤ 0.25"}, {"variant": "MLAR", "enrichment ratio": "≤ 0.25"}, {"variant": "FYVY", "enrichment ratio": "≤ 0.25"}, {"variant": "GMCT", "enrichment ratio": "≤ 0.25"}, {"variant": "RVNP", "enrichment ratio": "≤ 0.25"}, {"variant": "LKLV", "enrichment ratio": "≤ 0.25"}, {"variant": "YNKR", "enrichment ratio": "≤ 0.25"}, {"variant": "IVHA", "enrichment ratio": "≤ 0.25"}, {"variant": "KLYN", "enrichment ratio": "≤ 0.25"}, {"variant": "LQNR", "enrichment ratio": "≤ 0.25"}, {"variant": "SAFT", "enrichment ratio": "≤ 0.25"}, {"variant": "DSCF", "enrichment ratio": "≤ 0.25"}, {"variant": "LRFF", "enrichment ratio": "≤ 0.25"}, {"variant": "KWSS", "enrichment ratio": "≤ 0.25"}, {"variant": "MNPC", "enrichment ratio": "≤ 0.25"}, {"variant": "IFMY", "enrichment ratio": "≤ 0.25"}, {"variant": "IDIT", "enrichment ratio": "≤ 0.25"}, {"variant": "NFHK", "enrichment ratio": "≤ 0.25"}, {"variant": "IAHM", "enrichment ratio": "≤ 0.25"}, {"variant": "ICAV", "enrichment ratio": "≤ 0.25"}, {"variant": "WACM", "enrichment ratio": "≤ 0.25"}, {"variant": "SNQH", "enrichment ratio": 2.64}, {"variant": "QTMT", "enrichment ratio": "≤ 0.25"}, {"variant": "PTAC", "enrichment ratio": "≤ 0.25"}, {"variant": "YPLP", "enrichment ratio": "≤ 0.25"}, {"variant": "RCLA", "enrichment ratio": "≤ 0.25"}, {"variant": "SVHG", "enrichment ratio": "≤ 0.25"}, {"variant": "SQRK", "enrichment ratio": "≤ 0.25"}, {"variant": "LWYA", "enrichment ratio": "≤ 0.25"}, {"variant": "AIML", "enrichment ratio": 21.2}, {"variant": "QTSE", "enrichment ratio": "≤ 0.25"}, {"variant": "MNKT", "enrichment ratio": "≤ 0.25"}, {"variant": "EFMW", "enrichment ratio": "≤ 0.25"}, {"variant": "KTPM", "enrichment ratio": "≤ 0.25"}, {"variant": "FFQM", "enrichment ratio": "≤ 0.25"}, {"variant": "TFAQ", "enrichment ratio": 2.37}, {"variant": "CVPH", "enrichment ratio": "≤ 0.25"}, {"variant": "NDYD", "enrichment ratio": "≤ 0.25"}, {"variant": "GVWF", "enrichment ratio": "≤ 0.25"}, {"variant": "THGD", "enrichment ratio": "≤ 0.25"}, {"variant": "ADCI", "enrichment ratio": "≤ 0.25"}, {"variant": "RWIP", "enrichment ratio": "≤ 0.25"}, {"variant": "SWTH", "enrichment ratio": "≤ 0.25"}, {"variant": "SKSH", "enrichment ratio": 0.51}, {"variant": "PTGW", "enrichment ratio": "≤ 0.25"}, {"variant": "ITDM", "enrichment ratio": "≤ 0.25"}, {"variant": "QQIF", "enrichment ratio": "≤ 0.25"}, {"variant": "EYAY", "enrichment ratio": "≤ 0.25"}, {"variant": "TSDL", "enrichment ratio": 4.55}, {"variant": "SKCI", "enrichment ratio": 16.6}, {"variant": "IVWL", "enrichment ratio": "≤ 0.25"}, {"variant": "NTGT", "enrichment ratio": "≤ 0.25"}, {"variant": "TFEP", "enrichment ratio": "≤ 0.25"}, {"variant": "GLPP", "enrichment ratio": "≤ 0.25"}, {"variant": "CTLS", "enrichment ratio": "≤ 0.25"}, {"variant": "KELS", "enrichment ratio": "≤ 0.25"}, {"variant": "PNYT", "enrichment ratio": "≤ 0.25"}, {"variant": "SRQW", "enrichment ratio": "≤ 0.25"}, {"variant": "ARNL", "enrichment ratio": "≤ 0.25"}, {"variant": "VMRL", "enrichment ratio": "≤ 0.25"}, {"variant": "WSCM", "enrichment ratio": "≤ 0.25"}, {"variant": "VFQN", "enrichment ratio": "≤ 0.25"}, {"variant": "FEVY", "enrichment ratio": "≤ 0.25"}, {"variant": "GHFI", "enrichment ratio": "≤ 0.25"}, {"variant": "KAIN", "enrichment ratio": "≤ 0.25"}, {"variant": "MTNL", "enrichment ratio": "≤ 0.25"}, {"variant": "IVFP", "enrichment ratio": "≤ 0.25"}, {"variant": "AHYN", "enrichment ratio": "≤ 0.25"}, {"variant": "KTEI", "enrichment ratio": "≤ 0.25"}, {"variant": "TIRW", "enrichment ratio": "≤ 0.25"}, {"variant": "SKNL", "enrichment ratio": "≤ 0.25"}, {"variant": "RMTE", "enrichment ratio": "≤ 0.25"}, {"variant": "SWTC", "enrichment ratio": "≤ 0.25"}, {"variant": "IIWI", "enrichment ratio": "≤ 0.25"}, {"variant": "ERWV", "enrichment ratio": "≤ 0.25"}, {"variant": "YMFD", "enrichment ratio": "≤ 0.25"}, {"variant": "GGPF", "enrichment ratio": "≤ 0.25"}, {"variant": "ALKS", "enrichment ratio": "≤ 0.25"}, {"variant": "RRMQ", "enrichment ratio": "≤ 0.25"}, {"variant": "MLKS", "enrichment ratio": "≤ 0.25"}, {"variant": "DMFE", "enrichment ratio": "≤ 0.25"}, {"variant": "RQLN", "enrichment ratio": "≤ 0.25"}, {"variant": "GIMN", "enrichment ratio": 1.64}, {"variant": "HRLD", "enrichment ratio": "≤ 0.25"}, {"variant": "ETPT", "enrichment ratio": "≤ 0.25"}, {"variant": "HCRY", "enrichment ratio": "≤ 0.25"}, {"variant": "FYLW", "enrichment ratio": "≤ 0.25"}, {"variant": "DNEF", "enrichment ratio": "≤ 0.25"}, {"variant": "SCQH", "enrichment ratio": 1.92}, {"variant": "NGMY", "enrichment ratio": "≤ 0.25"}, {"variant": "SQRI", "enrichment ratio": "≤ 0.25"}, {"variant": "DNTC", "enrichment ratio": "≤ 0.25"}, {"variant": "RQTA", "enrichment ratio": "≤ 0.25"}, {"variant": "EAQN", "enrichment ratio": "≤ 0.25"}, {"variant": "PDKL", "enrichment ratio": "≤ 0.25"}, {"variant": "YLTA", "enrichment ratio": "≤ 0.25"}, {"variant": "TSTY", "enrichment ratio": 11.6}, {"variant": "GPFY", "enrichment ratio": "≤ 0.25"}, {"variant": "PQEW", "enrichment ratio": 1.09}, {"variant": "LMSM", "enrichment ratio": "≤ 0.25"}]}]}
